In the RNAGym collection of RNA variant scans (doi:10.7554/elife.90254):
The source gives no read counts; variants with many changes may rest on few reads.

B1: OR4K15 (parent)
chain: GUUAACGGUCAUAGGCCAUGGAAACUAGGAGCACCAUUUCGCUGCCAGUGAAGAAAUGAACAAAGAAAAUCUGGGCCAGGCAGGCAUCAAAAGAAAUAGUCUUGCGCUCAACCAGAAAGUCUGUAAUCAUUUUAAGGGUA

Variants of: B1
Experiment: self-cleavage, relative activity (ratio to wild type); higher = more cleavage; in vitro, sequencing; the parent is a self-cleaving ribozyme

Row | Variant | self-cleavage
1 | A51G A78U U103C | 0.16
2 | G7U U9C U37C A56G U127C | 0.53
3 | A62U A86G A94G A129G | 1.26
4 | U49C A94G A135G | 1.96
5 | A33U U70A A90G | 0.99
6 | A68G G83A G93A | 2.49
7 | C35A A64G A69G U87C | 1.44
8 | A24C A60G G73A A82G A91G | 0.08
9 | U49A A64G U133C | 1.63
10 | C40U A47U A60U | 1.49
11 | U12A A68G C88U U100C A114G | 0.79
12 | A60G A66G A114U | 0.06
13 | U26C A54G A110G | 0.09
14 | A24G U43C G83A C121A | 2.69
15 | A11G U43C A78U U108C | 0
16 | U9C A47U U72C U139C | 0.15
17 | A51U C85A U131C | 1.19
18 | A52G A66G A86G | 1.21
19 | A24U A92G A116G | 0.72
20 | A18G U38C U43C A98U A117G | 2.18
21 | A5G A56G G79A A95G | 0.16
22 | C17U A56G A60G A78U | 0.17
23 | G44A A68G G93U A114G | 0.08
24 | U43C A56G A135G | 1.69

Row | Variant | self-cleavage
25 | A82G A91G A92G | 0.41
26 | A24U A56G A62U A98U U131C | 2.34
27 | G7U C34U U72C | 0.37
28 | A11C A30G A62G A66G | 1.4
29 | A54G A55U A78U | 0.25
30 | G7U A23G A54G U72C G115A | 0.04
31 | A22G U120A A126G | 0.93
32 | G79A U87C A125G | 0.04
33 | U12G A67G U70C A110U | 1.21
34 | U57C A96G A117G | 1.31
35 | U3C A4G A89G U97A | 0.6
36 | A23G U57G A67U A68G U87C | 0.63
37 | U2A A23G U72C A114G A118G | 1.76
38 | A69G A98G U108G | 0.02
39 | A33G C77U G84A A114G | 0.54
40 | U43A U120A U133A | 2.08
41 | A30G U43A A52G U57A | 1.65
42 | U87A A96G A129U | 0.99
43 | A23G U39C A69G U102C | 1.28
44 | U72C A89G U133C | 0.53
45 | A60G U72C G119U | 0.19
46 | A64U U72C A91G A129G U130C U132A | 0.04
47 | A22G U131C U133C | 0.93
48 | A36G A78C A92C A116G U127A | 0.15

Row | Variant | self-cleavage
49 | A11U A86G G93A U122C | 0.76
50 | U39C A64U U97C U100C U131C | 1.4
51 | U3C A64G A66G A96G U122C U132C | 0.63
52 | A18U A111G A140G | 0.02
53 | U120C U124C A126U U127A | 0.49
54 | G80A A92G A98G A118G | 0.04
55 | C6A G15A U102C | 1.66
56 | A22G C35A U124C | 0.89
57 | C6A U37C A51G | 1.08
58 | U12C A92G A135G | 1.65
59 | A62G A69G U130C | 0.63
60 | U2A A11G A51G A126G | 0.55
61 | A69G G75C U87C A96C A111G U130C | 0
62 | A111U U124G U131C | 0.05
63 | U38C A82G U122C | 0.27
64 | U26C A92G A125C U127C | 0.21
65 | G20A U43C U103C A118U G136U | 0.22
66 | U3C A60G A64G | 1.59
67 | U49C A54G C113A U124C A134C | 0.04
68 | U12A U57A A82U | 0.32
69 | A30G A96G A116U U133C | 0.21
70 | A30G C40A A114U | 0.27
71 | A56G U72C A96G A116G U122C | 0.05
72 | A60G A69U A135G A140G | 2.47

Row | Variant | self-cleavage
73 | U3C A36G U49C | 1.3
74 | A23G A56G A66G U70C | 0.67
75 | A11G A54G A63G | 0.88
76 | A13U A56G G80A U131C | 0.1
77 | A24C A54U U87A A111G | 0.01
78 | A56G A67G A91G | 1.49
79 | A30G U49C U72A U87A | 0.2
80 | A23G A27G U70G A135G G137U | 0.98
81 | A23G U57C U103C | 0.16
82 | A18G A52G U108C | 0.05
83 | A30G A36C A89G A118G | 0.63
84 | A11U A24G U49G U87C | 1.11
85 | A18U A33G A54U U102C A116G U132C | 0.46
86 | U38C A95G U100C A111G | 0
87 | G1A A24G U43C A52G | 1.05
88 | A51G A55G A59G | 2.01
89 | A33G A51U A90G U103C | 0.14
90 | A59G U97C U127C | 0.93
91 | G58U A68G A94G U108C | 0.01
92 | A33G A94C U100C A117C A125G | 0.28
93 | A66G C85U U127C | 0.79
94 | A82C A86G U100C U122A | 0.35
95 | U37C A94U U122C U130C | 0.62
96 | U12C U49C U72C A92G A125G | 0.01

Row | Variant | self-cleavage
97 | A69G U87C A94G | 1.3
98 | A24G U39C A135G | 1.2
99 | A62U A114U A118G | 0.01
100 | G41A A51G A78U | 0.17
101 | A68G A111G U131C | 0
102 | U9C U38C A114G A129G U133C | 0.77
103 | A69G A78G A92G U108C U122C | 0
104 | A27G U39C A59U A64U C76A A78G A111G | 0.08
105 | U39C G83A A86U A98G | 1.33
106 | A11G U38C A129G | 1.25
107 | A66G A78U A94G A129G | 0.24
108 | C45U A69G A89U | 0.89
109 | C101U A118G C128A | 0.01
110 | U38A A56G C71U A89G | 0.35
111 | U38G A67U U100C | 2.08
112 | U19G A24G A54G | 0.85
113 | A5G G8A A125G | 0.63
114 | C35U U38C A52G A55G A64G | 0.37
115 | A5G A23G U38C A96G U120C A126G | 1.01
116 | A51U A118G U122A | 1.19
117 | A22G U72C A117G | 0.17
118 | A89U C107U A111U | 0.01
119 | A30U G83A A96U U108A U139C | 0.02
120 | A51G A86G U130C | 0.44

Row | Variant | self-cleavage
121 | C61U A118G A126G | 0.8
122 | A59G A63G A89G A129G | 0.84
123 | A23G A114U A116G | 0.02
124 | U12C G15U A82U U124C | 0.1
125 | A60G A129C A135C | 1.31
126 | A22G A52U A63G U87C A94G | 0.82
127 | A23G A69G A78C A90U | 0.22
128 | A62G A66G A89U A116G | 0.51
129 | A5G A23G A52C A91U A118G A126G | 0.56
130 | C34U U49C A111G | 0.01
131 | A27U A94G U103C | 1.96
132 | A18G A23G A59G A95G | 1.49
133 | U37C U49C A63G A118C | 1.09
134 | U57C U70C A92G | 0.75
135 | U37C A94G A95G G137U | 2.41
136 | A22G U26C A33G | 1.24
137 | A67U A82C C109U | 0.08
138 | U2G G21A A23G U49C A116G U122C | 0.55
139 | U37C A59G A86G U127C | 0.73
140 | A11G A96G A111G | 0.03
141 | A18C A22G A33U | 1.28
142 | A30G A98G A118G | 0.26
143 | U9C U38C A129G | 1.46
144 | A5G U43C A52G A69U U130C | 0.61

Row | Variant | self-cleavage
145 | U9C U39C A47U A86U U87C A96G | 0.68
146 | U2C A27U A86G U122C | 0.86
147 | A11G A68G U102C A125G | 0.32
148 | C6A U9C U122C | 0.62
149 | U19C U43C A60G G106A | 0.03
150 | A78U U87A U132C | 0.27
151 | G31C A116U U122C | 0.22
152 | G44A A92U A95G A117G | 1.98
153 | A13G A22U A114U | 0.33
154 | A60G A62U G84C U130C | 0.26
155 | U9C U37C A63G A64G | 0.85
156 | A47U A54U A60G A96G | 0.92
157 | U57G A60G A92G | 0.27
158 | U70C A94G U132C | 0.89
159 | U9A A55G A67G G74A A92G G123U A126G A140G | 0.1
160 | A56G A64G A94G A126G | 1.03
161 | U49C A129C U130A | 0.9
162 | U38C A68G A86G A117G A118G | 2.32
163 | A18U A51G A60G U72C | 0.29
164 | U37C A68G U97A | 1.94
165 | G1A A22C A82C | 0.48
166 | C10U A52G U72A U100C A118C U127C | 0.05
167 | C6U A18G A33G | 1.01
